# In publication PMC12040169 (PLOS Biology, 2025):
# The list shows a part of the results.
# Tested on: T1, C. trachomatis L2/434/Bu expressing GFP (CTL2-GFP)
# T1 construct: L2/434/Bu GFP intracellular growth in HeLa cells
# Design: species or system HeLa; C. trachomatis total inclusion area by high-content imaging, normalised to DMSO
# Settings: total inclusion area; 28.5 h, 10 µM; inhibitor
# Outline: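 Bulk GFP and resorufin signals were read first. Wells were then fixed, stained with Hoechst and imaged to detect GFP inclusions and host nuclei. MICs followed the previously described calculation.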
row,SMILES,% of control remaining
1,Cc1cc2c(s1)c1cnn(CC(=O)NC(C)C)c(=O)c1n2C [CBK284155],69.6505
2,O=C(O)CCCC(=O)NC12CC3CC(CC(C3)C1)C2 [CBK286958],58.7734
3,Cn1c(C(=O)OCC(=O)NC(C)(C)C)cc2occc21 [CBK284015],55.8618
4,Cn1c(=O)c2c(ncn2CC(=O)Nc2cccc3ccccc23)n(C)c1=O [CBK133515],95.3843
5,COc1nc(N)nc(C/C(=N\NC(=O)c2cccnc2)C2CC2)n1 [CBK019872],96.3812
6,CN1CCN(C(=O)c2ccc(-c3ccccc3)nc2NCCc2ccccn2)CC1 [CBK076550],94.8207
7,CS(=O)(=O)Nc1nccnc1N1CCNCC1 [CBK074045T],97.4621
8,COCCCn1c(=O)[nH]c2ncc(-c3cc(OC)c(OC)c(OC)c3)nc21 [CBK064937],116.597
9,Cc1ccc(CNCCNCCO)s1 [CBK278168C],113.757
10,Cc1cccc(CN2CC[C@H]3[C@@H](C2)[C@H](c2ccsc2)CN3C(=O)c2ccccc2)c1 [CBK285619],74.4735
11,CCOC(=O)c1c(NC(C)=O)nc2n1CCS2 [CBK023488],114.288
12,CCN(CC)CC1CCCCC1=O (stereo not shown) [CBK023965G],109.731
13,O=C(O)C(Cc1ccccc1)N1C(=O)/C(=C/c2cccc([N+](=O)[O-])c2)SC1=S (stereo not shown) [CBK263078],89.4678
14,CC(C)Oc1ncc(C(=O)NCc2cccc(NC(N)=O)c2)cc1Cl [CBK306327],52.8089
15,Cc1nc(C)c(-c2csc(Nc3ccc(O)cc3C)n2)s1 [CBK267346],111.42
16,CCn1ccc(NC(=O)CC2CCN(Cc3cccc(C(F)(F)F)c3)CC2)n1 [CBK285997],81.0378
17,O=C(c1ccco1)N1CCCC(n2cnc3cc(F)ccc32)C1 (stereo not shown) [CBK284475],100.215
18,CSCC[C@@H]1CN2CCC[C@H]2CN1Cc1cnc(C)n1C [CBK285423],90.8439
19,Cn1cnc2cc(C(=O)N3CC(C(=O)N4CCN(c5ccccc5)CC4)C3)ccc21 [CBK285664],87.521
20,O=C(Nc1ccc(S(=O)(=O)N2CCCCCC2)cc1)c1ccc(NS(=O)(=O)c2ccccc2)cc1 [CBK268018],101.164
21,O=C(CC1CCN(Cc2cccc(C(F)(F)F)c2)CC1)NCc1ccc2[nH]c(=O)[nH]c2c1 [CBK285954],101.85
22,O=C1CC(C(=O)Nc2c(Cl)cccc2Cl)C2(CCCCC2)O1 (stereo not shown) [CBK058445],68.6547
23,Cc1noc(NS(=O)(=O)c2ccc(NC(=O)COc3cccc(Br)c3)cc2)c1C [CBK264086],27.9665
24,Cc1noc(C)c1S(=O)(=O)Nc1nc(=O)[nH]cc1F [CBK067569],94.8595
25,CC1=C[C@@H](CNC(=O)NC(C)C)[C@H](C(C)C)C[C@H]1CC(=O)N1CCN(C)CC1 [CBK289047],97.467
26,Cc1nc(-c2cccnc2)[nH]c(=O)c1CC(=O)N(C)C1CCCC1 [CBK304907],33.7883

row,SMILES,% of control remaining
1,CC(Cc1ccccn1)N(C)C(=O)c1cccc(N2CCCC2=O)c1 (stereo not shown) [CBK282153],78.3095
2,Cc1nc(-c2ccccc2)sc1CNC(=O)COc1ccc(F)cc1 [CBK092350],111.8
3,CO[C@@H]1CO[C@H]2[C@@H]1OC[C@@H]2Nc1nccc(-c2cccc(C#N)c2)n1 [CBK289532],75.9515
4,Nc1ncnc(Nc2cccc(C(F)(F)F)c2)n1 [CBK017403],90.785
5,NC(=O)c1ccc(NC(=O)N2CCCCC2CO)cc1 (stereo not shown) [CBK156185],106.424
6,Cn1ccnc1C(NC(=O)c1cccnc1)c1ccc(F)c(F)c1 (stereo not shown) [CBK283807],104.767
7,CSc1nncc(-c2ccc(Cl)cc2)n1 [CBK028747],12.7349
8,O=[N+]([O-])c1cc(Br)cc(/C=N/Nc2nc3ccccc3[nH]2)c1O [CBK263486],108.384
9,Nc1nnc(Sc2nc3ccccc3nc2N2CCCC2)s1 [CBK093750],122.137
10,Cc1ccc(NC(=O)c2ccccc2NS(=O)(=O)c2cccc(C(=O)O)c2)cc1 [CBK296695],113.929
11,CC(Oc1cccc(Cl)c1)n1cnnc1 (stereo not shown) [CBK022246],67.9605
12,Cc1ccc(-c2csc3ncnc(SCc4csc(C)n4)c23)cc1 [CBK267244],105.337
13,Cc1noc(C)c1CN1CC2CCN(c3ccccc3)C2C1 (stereo not shown) [CBK304847],19.3443
14,CN1CCC(N2CCN(C(=O)NCc3ccc(Cl)c(Cl)c3)CC2)CC1 [CBK155883],82.8291
15,Cc1nc(C(C)NC(=O)CCc2cnn(C)c2)c(C)s1 (stereo not shown) [CBK307064],61.6006
16,Cc1ccc2c(c1)oc(=O)n2CCNC(=O)c1cccs1 [CBK284472],35.7337
17,COCC1OC(n2cc(C)c(=O)[nH]c2=O)CC1O (stereo not shown) [CBK201338],139.39
18,CCOc1ccc(-n2c(SCc3nc4ccccc4[nH]3)nc3sc4c(c3c2=O)CCCC4)cc1 [CBK264581],107.342
19,CCCCCc1nc(N)c(-c2cccc(Br)c2)c(C#N)c1CCCC [CBK026574],110.811
20,O=C1N=C(NCC2CCCCC2)SC1CC(=O)N1Cc2ccccc2C1 (stereo not shown) [CBK067016],51.5134
21,CC(C)(C)NCC(O)COc1cccc2c3c(oc12)CCCC3 (stereo not shown) [CBK008871C],40.9962
22,O=C(Nc1cccc2ccccc12)C1CCC(C(=O)Nc2cccc3ccccc23)CC1 (stereo not shown) [CBK268706],98.8789
23,CC(=O)C1=C(C)NC(SCC(=O)c2ccc(F)cc2)=C(C#N)C1c1sccc1C (stereo not shown) [CBK262624],87.6057
24,CC1CCN(C(=O)C2CC(=O)N(c3ccc(C(=O)O)cc3)C2)CC1 (stereo not shown) [CBK286568],76.6226
25,O=C1c2cccc([N+](=O)[O-])c2C(=O)N1c1cc(Cl)cc(Cl)c1 [CBK115326],88.7504
26,CCOc1cc(C(O)c2nnc(-c3ccccc3)o2)ccc1OCC(C)C (stereo not shown) [CBK132385],109.38
